Experimental data reported in publication PMC4706423.
Substitutions are numbered along the chain they refer to. No constants are given. Whether binding was seen depends on the method and setting. Some entries that bind do so weakly or less than the wild type. Sequences can lack the tags named with a protein.

What was measured:
Assay in all cases: two-hybrid; bait (pDEST32) and prey (pDEST22) co-transformed into yeast strain AH109; growth on SD-Leu-Trp-His and SD-Leu-Trp-His with 5 mM 3-amino-1,2,4-triazole; three biological replicates
[1] = target: T1, AtCFL1C, C-terminal of AtCFL1 with 119 amino acid residues, GAL4 DNA binding domain fusion (Arabidopsis thaliana) (UniProt Q5HZ54)
T1 sequence: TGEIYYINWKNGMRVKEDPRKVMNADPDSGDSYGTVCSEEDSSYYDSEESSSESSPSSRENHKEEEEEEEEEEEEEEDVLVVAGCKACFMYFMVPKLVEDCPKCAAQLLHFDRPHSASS

[2] = target: T2, AtCFL1 with C155, C158, C171 and C174 residues mutated (C155A C158A C171A C174A), GAL4 DNA binding domain fusion (Arabidopsis thaliana) (UniProt Q5HZ54)
T2 sequence: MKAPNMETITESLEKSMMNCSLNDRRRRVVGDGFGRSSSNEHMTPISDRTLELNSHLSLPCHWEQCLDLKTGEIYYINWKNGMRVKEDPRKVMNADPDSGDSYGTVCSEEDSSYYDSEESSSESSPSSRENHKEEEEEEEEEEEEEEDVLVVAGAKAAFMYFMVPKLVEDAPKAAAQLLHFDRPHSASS

[3] = target: T3, AtCFL1 with C171 and C174 residues mutated (C171A C174A), GAL4 DNA binding domain fusion (Arabidopsis thaliana) (UniProt Q5HZ54)
T3 sequence: T2 sequence with A155C, A158C

[4] = target: T4, AtCFL1, full length, GAL4 DNA binding domain fusion (pDEST32-AtCFL1) (Arabidopsis thaliana) (UniProt Q5HZ54)
T4 sequence: T2 sequence with A155C, A158C, A171C, A174C

[5] = target: T5, AtCFL1 C50, C-terminal 50 amino acid residues of AtCFL1, GAL4 DNA binding domain fusion (Arabidopsis thaliana) (UniProt Q5HZ54)
T5 sequence: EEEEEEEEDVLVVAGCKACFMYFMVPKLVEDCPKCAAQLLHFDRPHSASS

[6] = target: T6, AtCFL1 with C155 and C158 residues mutated (C155A C158A), GAL4 DNA binding domain fusion (Arabidopsis thaliana) (UniProt Q5HZ54)
T6 sequence: T2 sequence with A171C, A174C

[7] = target: T7, AtCFL1N, N-terminal of AtCFL1 with 70 amino acid residues, GAL4 DNA binding domain fusion (Arabidopsis thaliana) (UniProt Q5HZ54)
T7 sequence: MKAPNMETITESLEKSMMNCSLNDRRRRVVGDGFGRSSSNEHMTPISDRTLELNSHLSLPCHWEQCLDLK

[8] = target: T8, AtCFL1 C77, C-terminal 77 amino acid residues of AtCFL1, GAL4 DNA binding domain fusion (Arabidopsis thaliana) (UniProt Q5HZ54)
T8 sequence: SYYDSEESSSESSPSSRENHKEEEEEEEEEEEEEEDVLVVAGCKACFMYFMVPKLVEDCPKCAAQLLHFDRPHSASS

[9] = target: T9, AtCFL1 ΔC20, AtCFL1 with the C-terminal 20 amino acid residues deleted, GAL4 DNA binding domain fusion (Arabidopsis thaliana) (UniProt Q5HZ54)
T9 sequence: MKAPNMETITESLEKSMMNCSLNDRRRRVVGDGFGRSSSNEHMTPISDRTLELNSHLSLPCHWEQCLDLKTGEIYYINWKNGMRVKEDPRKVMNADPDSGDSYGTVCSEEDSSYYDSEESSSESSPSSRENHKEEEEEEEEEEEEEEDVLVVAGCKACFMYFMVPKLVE

[10] = target: T10, AtCFL1 C98, C-terminal 98 amino acid residues of AtCFL1, GAL4 DNA binding domain fusion (Arabidopsis thaliana) (UniProt Q5HZ54)
T10 sequence: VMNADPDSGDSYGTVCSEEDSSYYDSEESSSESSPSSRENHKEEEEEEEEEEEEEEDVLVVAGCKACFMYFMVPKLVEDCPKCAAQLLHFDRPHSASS

binding [1]: binds | binding [2]: no binding | binding [3]: no binding | binding [4]: binds | binding [5]: binds | binding [6]: no binding | binding [7]: no binding | binding [8]: binds | binding [9]: no binding | binding [10]: binds
B1: HDG1, HD-ZIP IV transcription factor, two-hybrid prey (protein, UniProt Q9M2E8 1-808)
chain: MNFNGFLDDGAGASKLLSDAPYNNHFSFSAVDTMLGSAAIAPSQSLPFSSSGLSLGLQTNGEMSRNGEIMESNVSRKSSRGEDVESRSESDNAEAVSGDDLDTSDRPLKKKKRYHRHTPKQIQDLESVFKECAHPDEKQRLDLSRRLNLDPRQVKFWFQNRRTQMKTQIERHENALLRQENDKLRAENMSVREAMRNPMCGNCGGPAVIGEISMEEQHLRIENSRLKDELDRVCALTGKFLGRSNGSHHIPDSALVLGVGVGSGGCNVGGGFTLSSPLLPQASPRFEISNGTGSGLVATVNRQQPVSVSDFDQRSRYLDLALAAMDELVKMAQTREPLWVRSSDSGFEVLNQEEYDTSFSRCVGPKQDGFVSEASKEAGTVIINSLALVETLMDSERWAEMFPSMVSRTSTTEIISSGMGGRNGALHLMHAELQLLSPLVPVRQVSFLRFCKQHAEGVWAVVDVSIDSIREGSSSSCRRLPSGCLVQDMANGYSKVTWIEHTEYDENHIHRLYRPLLRCGLAFGAHRWMAALQRQCECLTILMSSTVSTSTNPSPINCNGRKSMLKLAKRMTDNFCGGVCASSLQKWSKLNVGNVDEDVRIMTRKSVNNPGEPPGIILNAATSVWMPVSPRRLFDFLGNERLRSEWDILSNGGPMKEMAHIAKGHDRSNSVSLLRASAINANQSSMLILQETSIDAAGAVVVYAPVDIPAMQAVMNGGDSAYVALLPSGFAILPNGQAGTQRCAAEERNSIGNGGCMEEGGSLLTVAFQILVNSLPTAKLTVESVETVNNLISCTVQKIKAALHCDST
